Data taken from the supplement of paper PMC4967469.
pIC50: −log10 of the molar value. By IC50 is meant the dose at which the fit gives 50% viability; a fit beyond the top or the lowest dose is shown as a bound at that dose. AUC is the area under the same curve over the 256-fold range up to the top dose, as a fraction; the more sensitive the line, the further below 1. For some of these results: Any top dose called inferred is not printed in the source and was worked back from the curve model.

Legend:
Test in all cases: Viability of human cancer cell lines after 72 h of drug (GDSC screen)
Bexarotene = compound: C=C(c1ccc(C(=O)O)cc1)c1cc2c(cc1C)C(C)(C)CCC2(C)C [Bexarotene]; details: top dose 8 µM
Experimental: (§1)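 Human cancer cell lines in 384-well plates, medium with 10% serum, drug for 72 h over a 256-fold dose range (nine 2-fold or five 4-fold steps up to the top dose). Adherent lines were fixed and stained with the nucleic acid dye Syto60, suspension lines read with resazurin; signal relative to control wells, capped at 0 and 100%. One two-parameter sigmoid per drug and line, fitted in a mixed model over all curves with the slope shared within a line.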

NPK76-II-72-1 = compound: COc1cc(C(=O)NC2CCN(C)CC2)ccc1Nc1ncc2c(n1)N(C1CCCC1)C(C)CC(=O)N2C [NPK76-II-72-1]; details: top dose 10.24 µM; top dose inferred
Experimental: as §1

Etoposide = compound: COc1cc([C@@H]2c3cc4c(cc3[C@@H](O[C@@H]3O[C@@H]5CO[C@@H](C)O[C@H]5[C@H](O)[C@H]3O)[C@H]3COC(=O)[C@H]23)OCO4)cc(OC)c1O [Etoposide]; details: top dose 16 µM
Experimental: as §1

YK 4-279 = compound: COc1ccc(C(=O)CC2(O)C(=O)Nc3c(Cl)ccc(Cl)c32)cc1 [YK 4-279]; details: top dose 10 µM
Experimental: as §1

BMS-345541 = compound: Cc1ccc2nc(NCCN)c3ncc(C)n3c2c1 [BMS-345541]; details: top dose 16 µM
Experimental: as §1

AZD7762 = compound: NC(=O)Nc1cc(-c2cccc(F)c2)sc1C(=O)N[C@H]1CCCNC1 [AZD7762]; details: top dose 2 µM
Experimental: as §1

GSK-650394 = compound: O=C(O)c1ccc(-c2c[nH]c3ncc(-c4ccccc4)cc23)cc1C1CCCC1 [GSK-650394]; details: top dose 16 µM; top dose inferred
Experimental: as §1

XAV 939 = compound: Oc1nc(-c2ccc(C(F)(F)F)cc2)nc2c1CSCC2 [XAV 939]; details: top dose 5 µM; top dose inferred
Experimental: as §1

Cell Line	AUC (Bexarotene)	pIC50 (Bexarotene)	AUC (NPK76-II-72-1)	pIC50 (NPK76-II-72-1)	AUC (Etoposide)	pIC50 (Etoposide)	AUC (YK 4-279)	pIC50 (YK 4-279)	AUC (BMS-345541)	pIC50 (BMS-345541)	AUC (AZD7762)	pIC50 (AZD7762)	AUC (GSK-650394)	pIC50 (GSK-650394)	AUC (XAV 939)	pIC50 (XAV 939)
SCC-25 (head and neck, adherent)	0.983	< 5.10	0.866	< 4.99	0.738	5.27	0.855	5.01	0.773	5.15	0.9	< 5.70	0.93	< 4.80	0.929	< 5.30
SCH (stomach, adherent)	0.973	< 5.10	0.988	< 4.99	0.988	< 4.80	0.958	< 5.00	0.942	< 4.80	0.857	5.74	0.988	< 4.80	0.943	< 5.30
SF539 (glioma, adherent)	0.987	< 5.10	0.82	5.29	0.549	5.87	0.658	5.79	0.88	4.86	0.455	7.02	0.976	< 4.80	0.976	< 5.30
SH-4 (melanoma, adherent)	0.819	< 5.10	0.879	< 4.99	0.626	5.57	0.952	< 5.00	0.877	< 4.80	0.851	< 5.70	0.836	< 4.80	0.854	< 5.30
SHP-77 (small cell lung carcinoma, semi-adherent)	0.991	< 5.10	0.908	< 4.99	0.97	< 4.80	0.585	5.98	0.884	4.85	0.968	< 5.70	0.989	< 4.80	0.991	< 5.30
SIMA (neuroblastoma, adherent)	0.977	< 5.10	0.816	5.18	0.777	5.14	0.733	5.49	0.925	< 4.80	0.493	6.92	0.952	< 4.80	0.984	< 5.30
SISO (cervix, adherent)	0.855	5.23	0.953	< 4.99	0.346	6.42	0.639	5.83	0.918	< 4.80	0.695	6.37	0.762	5.26	0.938	< 5.30
SJRH30 (rhabdomyosarcoma, adherent)	0.94	< 5.10	0.891	< 4.99	0.727	5.34	0.755	5.46	0.854	4.88	0.23	7.70	0.927	< 4.80	0.985	< 5.30
SK-ES-1 (Ewing sarcoma, semi-adherent)	0.938	< 5.10	0.849	5.07	0.461	6.11	0.724	5.55	0.866	4.80	0.784	6.04	0.733	5.31	0.976	< 5.30
SK-LMS-1 (soft tissue, adherent)	0.853	5.24	0.821	5.26	0.435	6.17	0.545	6.08	0.848	4.95	0.656	6.48	0.675	5.52	0.978	< 5.30
SK-MEL-1 (melanoma, suspension)	0.992	< 5.10	0.993	< 4.99	0.989	< 4.80	0.97	< 5.00	0.965	< 4.80	0.992	< 5.70	0.993	< 4.80	0.973	< 5.30
SK-MEL-3 (melanoma, adherent)	0.981	< 5.10	0.919	< 4.99	0.825	4.93	0.882	< 5.00	0.884	< 4.80	0.898	< 5.70	0.872	< 4.80	0.983	< 5.30
SK-MEL-24 (melanoma, adherent)	0.944	< 5.10	0.969	< 4.99	0.93	< 4.80	0.806	5.19	0.98	< 4.80	0.867	< 5.70	0.983	< 4.80	0.898	< 5.30
SK-N-DZ (neuroblastoma, adherent)	0.963	< 5.10	0.978	< 4.99	0.922	< 4.80	0.592	5.95	0.956	< 4.80	0.755	6.17	0.922	< 4.80	0.987	< 5.30
SK-N-FI (neuroblastoma, adherent)	0.98	< 5.10	0.951	< 4.99	0.982	< 4.80	0.752	5.48	0.867	4.85	0.801	6.02	0.989	< 4.80	0.986	< 5.30
SK-N-SH (neuroblastoma, adherent)	0.922	< 5.10	0.945	< 4.99	0.368	6.36	0.584	5.97	0.877	4.80	0.797	6.03	0.885	< 4.80	0.969	< 5.30
